PubChem BioAssay AID504339 (National Center for Advancing Translational Sciences (NCATS), 2011)
Out of some 390,000 compounds screened, about 17,000 (4.4%) were called active. This list was built around the results that the source calls inconclusive (neither active nor inactive); the mix of calls is not that of the screen. Calls follow the shape of the dose curve; as a rule, active = well fitted inhibition curve with a large enough effect; inconclusive = small, poorly fitted or top-dose-only effect; inactive = no such curve, though single readings can be large or run the other way. Where the call is inconclusive, the potency comes from a doubtful curve fit.

target: Lysine-specific demethylase 4A (Homo sapiens) (UniProt O75164); assay: qHTS Assay for Inhibitors of JMJD2A-Tudor Domain; details: AlphaScreen JMJD2A-Tudor / H3K4me3 peptide binding; activity change, negative = inhibition: at 114 µM (top of the series); also: nearly all actives have a fitted effect of over 50% in size
Sequence of UniProt O75164 (O75164 whole entry, looked up, the tested form may be a part): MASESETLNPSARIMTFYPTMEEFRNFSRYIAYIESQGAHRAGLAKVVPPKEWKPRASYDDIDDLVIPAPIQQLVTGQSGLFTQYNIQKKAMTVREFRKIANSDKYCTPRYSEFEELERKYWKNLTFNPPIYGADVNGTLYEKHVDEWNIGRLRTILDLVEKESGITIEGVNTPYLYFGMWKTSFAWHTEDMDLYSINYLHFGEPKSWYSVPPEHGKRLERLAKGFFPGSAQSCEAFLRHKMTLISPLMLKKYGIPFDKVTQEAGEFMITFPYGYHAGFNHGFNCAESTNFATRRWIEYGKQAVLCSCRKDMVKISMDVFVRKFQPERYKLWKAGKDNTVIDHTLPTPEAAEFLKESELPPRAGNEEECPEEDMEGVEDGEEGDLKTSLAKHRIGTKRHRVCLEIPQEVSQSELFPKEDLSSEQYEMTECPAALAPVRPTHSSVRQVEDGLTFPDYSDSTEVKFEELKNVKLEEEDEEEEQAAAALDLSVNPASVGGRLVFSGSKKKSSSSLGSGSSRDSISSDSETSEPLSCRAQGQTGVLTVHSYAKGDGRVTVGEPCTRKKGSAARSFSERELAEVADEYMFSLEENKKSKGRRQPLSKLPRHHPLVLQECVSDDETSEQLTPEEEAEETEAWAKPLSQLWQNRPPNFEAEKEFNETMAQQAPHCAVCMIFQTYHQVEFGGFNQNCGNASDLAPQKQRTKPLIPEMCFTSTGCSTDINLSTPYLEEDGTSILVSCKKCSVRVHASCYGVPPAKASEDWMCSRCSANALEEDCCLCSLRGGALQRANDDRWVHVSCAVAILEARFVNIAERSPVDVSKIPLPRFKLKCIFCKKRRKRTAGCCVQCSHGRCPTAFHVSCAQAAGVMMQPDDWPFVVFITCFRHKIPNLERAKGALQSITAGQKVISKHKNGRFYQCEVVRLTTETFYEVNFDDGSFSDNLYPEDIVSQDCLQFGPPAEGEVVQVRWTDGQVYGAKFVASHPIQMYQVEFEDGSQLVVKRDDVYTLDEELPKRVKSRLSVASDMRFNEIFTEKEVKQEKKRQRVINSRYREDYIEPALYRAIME
% is scaled to controls: 0 for no effect and ±100 for the full control effect; potency is read from the fitted curve at half-maximal effect; tags tell the direction and shape of the fitted curve.

Potency, inconclusive:
O=S(=O)(NCC(c1ccccc1)N1CCc2ccccc21)c1ccc(Cl)cc1 (centres undefined) 20 µM [inhibitor, full curve], CCOC(=O)c1cnc(-n2nc(C)cc2C)nc1Nc1ccc(OC)cc1 63.1 µM [inhibitor, partial curve], C=CCc1ccccc1OCCSc1nc(-c2ccccc2F)nc2cc(=O)[nH]n12 28.2 µM [inhibitor, full curve, poor fit], O=C1CC(c2ccc(Cl)c([N+](=O)[O-])c2)c2ccc3ccccc3c2N1 (centres undefined) 39.8 µM [inhibitor, single point], COc1ccc(C2C(C(=O)c3cccs3)=C(O)C(=O)N2c2nncs2)cc1 (centres undefined) 28.2 µM [inhibitor, full curve], COc1ccc(N2CCN(C(=O)COc3ccc(Cl)cc3Cl)CC2)cc1 56.2 µM [inhibitor, partial curve], COc1cc(NC(=O)Cc2noc3ccccc23)cc(OC)c1OC 79.4 µM [inhibitor, partial curve], CCN(CC)CCNC(=O)c1cc2c(=O)n(C)c3ccccc3c2s1 31.6 µM [inhibitor, single point], O=C(CN1C(=O)COc2ccc(S(=O)(=O)N3CCCCCC3)cc21)N1CCN(c2ccc(Cl)cc2)CC1 20 µM [inhibitor, full curve], CC(NCC(O)COCCC12CC3CC(CC(C3)C1)C2)c1ccccc1 (centres undefined) 17.8 µM [inhibitor, partial curve], CCC1CCCCN1CCn1c(=S)[nH]c2cc(OC)c(OC)cc2c1=O (centres undefined) 20 µM [inhibitor, full curve, poor fit], COc1ccc(CN=Cc2[nH]c3ccc(Br)c(Cl)c3c2O)cc1 50.1 µM [inhibitor, partial curve], O=C(NCCCN1CCN(c2ccccc2F)CC1)c1ccc2nc(CCc3ccccc3)oc2c1 50.1 µM [inhibitor, partial curve], Cc1cc(C(=O)N/N=C/c2cc(Cl)cc([N+](=O)[O-])c2O)n[nH]1 8.91 µM [inhibitor, single point], COc1ccc(NC(=O)/C(C#N)=C\c2ccc(OCc3ccc(C(=O)O)cc3)c(OC)c2)cc1 44.7 µM [inhibitor, full curve, poor fit], O=C(NCCCN1CCCC1=O)c1ccc2c(=O)n(-c3ccccc3F)c(=S)[nH]c2c1 35.5 µM [inhibitor, single point], Cn1c(=O)c2[nH]c(Cc3ccsc3)nc2n(C)c1=O 35.5 µM [inhibitor, partial curve], Clc1ccccc1-c1nn2c(-c3ccccn3)nnc2s1 89.1 µM [inhibitor, single point], COc1ccc(OC)c(/C=C/C(=O)OCC(=O)Nc2nnc(-c3ccccc3)o2)c1 79.4 µM [inhibitor, partial curve], O=C(NNc1c2ccccc2nc2ccccc12)c1cc2ccccc2cc1O 2.51 µM [inhibitor, full curve, poor fit], Cc1nnc(-c2cnn(-c3ccccc3)c2N)n1Cc1ccc(F)cc1 50.1 µM [inhibitor, partial curve], Cc1cc(=O)oc2cc(OC(C(=O)O)c3ccccc3)ccc12 (centres undefined) 0.708 µM [inhibitor, full curve], CN(C)S(=O)(=O)c1ccc(/C(O)=C2/C(=O)C(=O)N(Cc3cccnc3)C2c2ccco2)cc1 (centres undefined) 22.4 µM [inhibitor, full curve, poor fit], Cc1ccc(-c2nn(-c3ccccc3)cc2/C=N/n2c(-c3ccncc3)n[nH]c2=S)cc1 89.1 µM [inhibitor, partial curve], CCOC(=O)c1c(-c2ccccc2)oc2ccc(OCC(O)CNCCN(C)C)cc12 (centres undefined) 50.1 µM [inhibitor, partial curve], O=C(CSc1nc2ccccc2o1)NC(=O)NCc1ccco1 56.2 µM [inhibitor, partial curve], CCOC(=O)C1=C(CN2c3ccccc3CC2C)NC(=O)NC1c1ccccc1 (centres undefined) 56.2 µM [inhibitor, partial curve], CC(C)c1ccc(NC2CCCN(C(=O)c3ccoc3)C2)cc1 (centres undefined) 44.7 µM [inhibitor, full curve, poor fit], CCCCc1ccc(/C(C)=N/Nc2cc(N3CCOCC3)nc(C)n2)cc1 56.2 µM [inhibitor, partial curve, poor fit], CC(C)CCNc1nc(Nc2ccccc2)c2cnn(C)c2n1 79.4 µM [inhibitor, partial curve], Cc1cccc(NC(=S)NC(=O)/C=C/c2ccco2)n1 79.4 µM [inhibitor, partial curve], CCCn1c(N2CCN(CC(=O)NCc3cccs3)CC2)nc2ccccc21 39.8 µM [inhibitor, full curve, poor fit], Cc1ccc(C(=O)Nc2cc(-c3cn4cccnc4n3)ccc2C)cc1C 56.2 µM [inhibitor, partial curve, poor fit], O=C1C2C(c3ccccc3)CC=CC2[C@H](c2cccc([N+](=O)[O-])c2)N1Cc1ccccc1 (some centres undefined) 12.6 µM [inhibitor, full curve, poor fit], CCc1ccc(O)c(N=Cc2ccccc2O)c1 89.1 µM [inhibitor, single point], Cc1cc(Nc2ccc(F)cc2F)nc(-n2nc(C)cc2C)n1 22.4 µM [inhibitor, full curve, poor fit], O=C(c1cccc(F)c1)N1CCN(c2ccc([N+](=O)[O-])c(N3CCCCC3)c2)CC1 56.2 µM [inhibitor, partial curve, poor fit], CCOC(=O)c1c(-c2ccc(C)o2)csc1NC(=S)NC(=O)N(C)C 44.7 µM [inhibitor, partial curve]

Potency, active:
Cc1csc(NC(=O)CN2CCCCCC2)n1 1.58 µM, Cn1c(=O)c2[nH]c(N=NNc3ccccc3F)nc2n(C)c1=O 7.94 µM, CC(=O)C1=C(O)C(=O)N(c2ccc(Br)cn2)C1c1ccc(F)cc1 (centres undefined) 1.12 µM, CCN(CC)c1ccc(S(=O)(=O)N2CCOCC2)cc1NC(=O)CNCc1cccc(Cl)c1 50.1 µM, Cc1cc(NC(=O)CN2CCN(c3ccc(O)cc3)CC2)no1 89.1 µM, O=Cc1cc(Cl)ccc1OCCN1CCC(Cc2ccccc2)CC1 20 µM, Cc1cccc(N(Cc2cc(=O)[nH]c3ccccc23)C(=O)CCl)c1 56.2 µM, CCOc1ccc(C2=Nn3c(nnc3-c3ccccn3)SC2)cc1 35.5 µM, CSc1nc2ccc(NC(=O)c3ccccn3)cc2s1 28.2 µM, COc1ccccc1OCCn1ccnc1 3.55 µM, COc1ccc(-n2c(=S)[nH]c3cc(C(=O)NCCCN4CCOCC4)ccc3c2=O)cc1OC 22.4 µM, CCOC(=O)N1CCN(S(=O)(=O)c2ccc(C(=O)Nc3nnc(C4CC4)o3)cc2)CC1 50.1 µM, Nc1ccc(S(=O)(=O)Nc2nccs2)cc1N=Nc1ccccc1[N+](=O)[O-] 39.8 µM

Activity change, negative = inhibition, inactive:
CCSc1nc(-c2ccccc2)cc(=O)[nH]1 -16.2%, Cc1cccc(-n2ncc3c(NNC(=O)c4ccccc4Cl)ncnc32)c1 -27.5%, CCOc1ccc(C(=O)Nc2ccc(OCc3cc(=O)n4cccc(C)c4n3)cc2)cc1 -5.19%, CC(=O)c1cccc(NC(=O)c2sc(Cl)nc2C)c1 -8.52%, CC(C)OC(=O)c1nnn(-c2nonc2N)c1CN1CCCCCC1 -28.7%, N#C/C(=C\c1ccc(N2CCOCC2)o1)c1nc2ccccc2[nH]1 -2.74% [at 11.4 µM], CCOc1ccc(NC(=O)c2nc(S(=O)(=O)Cc3ccccc3F)ncc2Cl)cc1 -4.72%, CCN(CC)C(=O)c1ccc(C(=O)c2c(C)cc(C)cc2C)cc1 -16.5%, CC(=O)c1ccc(NC(=O)c2ccc(-n3cnnn3)cc2)cc1 -13.4%, CCc1ccc(NC(=O)CSc2nc(-c3ccc(C)cc3)nc3c2Cc2c(CO)cnc(C)c2O3)cc1 -24.2%, O=C(Cn1cc(C(F)(F)F)cc(Cl)c1=O)Nc1cccc(Cl)c1 -2.11%, Fc1ccc2nc(N3CCOCC3)sc2c1 4.12%, Cc1ccnc(SCC(=O)Nc2sccc2C#N)n1 -34%, CSCCC(NC(=O)c1ccccc1Cl)C(=O)OCC(=O)N1CCCC1=O (centres undefined) -3.45%, C=CCn1c(SCn2nnc3ccccc3c2=O)nc2scc(-c3cccs3)c2c1=O -14.1%, NS(=O)(=O)c1ccc(NC(=S)NC2CC2)cc1 -15.2%, CC(C)(C)C(=O)NCCn1ccc2ccccc21 -15.3%, COc1ccccc1C(CNC(=O)c1cccc(S(=O)(=O)N2c3ccccc3CC2C)c1)N(C)C (centres undefined) -14.1%, Cc1cc(Nc2ccc([N+](=O)[O-])cc2)c2ccccc2n1 -30.6%, CSCCC(NS(=O)(=O)c1ccc2c(c1)oc(=O)n2C)C(=O)NCc1ccc(Cl)cc1 (centres undefined) -8.01%, C=CCOC(=O)N1CCC2CC1c1cc(-c3cccc(C)c3)ccc12 (centres undefined) 61.6%, O=c1c2ccccc2c(C=NC2CCS(=O)(=O)C2)c(O)n1-c1ccccc1 (centres undefined) 0.585%, CC(=O)C(C(C)=O)C(c1ccccc1)c1nc2ccccc2[nH]c1=O (centres undefined) 6.52%
